This note sets out measurements from article PMC4336329 (PLoS ONE, 2015).

Structures are written as SMILES. Out of some 310,000 compounds screened, about 14,000 (4.5%) showed an effect of 50% or more. The effect is printed as a negative number. This is one part of the list.
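Further: peak tail current of the secondary pulse compared with the same well before compound.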

The target in the experiment is human ether-à-go-go-related gene (hERG) potassium channel (human, UniProt Q12809). Description: primary screen, population patch clamp on CHO cells stably expressing hERG.
human ether-à-go-go-related gene (hERG) potassium channel, sequence (Q12809 whole entry, looked up): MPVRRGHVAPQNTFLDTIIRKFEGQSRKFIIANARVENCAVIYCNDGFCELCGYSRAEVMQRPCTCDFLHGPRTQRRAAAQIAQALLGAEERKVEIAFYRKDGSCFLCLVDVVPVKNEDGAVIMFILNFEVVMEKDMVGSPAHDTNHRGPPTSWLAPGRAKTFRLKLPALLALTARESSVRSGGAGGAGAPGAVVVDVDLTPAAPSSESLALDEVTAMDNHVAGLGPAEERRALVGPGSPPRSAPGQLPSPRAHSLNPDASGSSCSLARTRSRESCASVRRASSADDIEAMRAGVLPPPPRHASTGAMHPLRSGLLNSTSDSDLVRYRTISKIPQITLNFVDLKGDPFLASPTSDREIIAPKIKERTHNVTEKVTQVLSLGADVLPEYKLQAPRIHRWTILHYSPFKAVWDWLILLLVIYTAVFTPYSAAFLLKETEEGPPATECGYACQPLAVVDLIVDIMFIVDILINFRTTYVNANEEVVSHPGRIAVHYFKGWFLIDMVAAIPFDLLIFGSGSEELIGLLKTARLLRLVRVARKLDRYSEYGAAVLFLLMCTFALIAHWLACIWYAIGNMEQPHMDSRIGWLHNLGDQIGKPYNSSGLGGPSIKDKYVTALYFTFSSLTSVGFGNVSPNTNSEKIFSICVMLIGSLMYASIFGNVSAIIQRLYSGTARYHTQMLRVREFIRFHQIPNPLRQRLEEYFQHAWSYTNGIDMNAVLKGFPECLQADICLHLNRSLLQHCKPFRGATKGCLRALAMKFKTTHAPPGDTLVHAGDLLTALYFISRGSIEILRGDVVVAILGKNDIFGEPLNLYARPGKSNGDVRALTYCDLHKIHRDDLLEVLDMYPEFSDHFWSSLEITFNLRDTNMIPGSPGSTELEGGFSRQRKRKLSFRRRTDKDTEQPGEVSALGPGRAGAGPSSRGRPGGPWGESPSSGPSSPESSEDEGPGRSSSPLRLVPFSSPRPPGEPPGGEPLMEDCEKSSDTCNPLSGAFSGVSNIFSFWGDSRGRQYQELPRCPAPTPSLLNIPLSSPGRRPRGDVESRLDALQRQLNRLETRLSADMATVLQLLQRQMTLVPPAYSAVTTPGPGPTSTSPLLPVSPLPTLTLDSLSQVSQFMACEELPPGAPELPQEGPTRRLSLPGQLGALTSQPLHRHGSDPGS
In the case of `Cc1nc(SCC(=O)NC(=O)NCc2ccccc2)nc(C)c1C`, the “hERG current change (%, negative = inhibition) at 10uM” value is on record as -21.8%.
Take `Cc1sc2ncn(CC(=O)NCC3COc4ccccc4O3)c(=O)c2c1S(=O)(=O)N1CCOCC1` (stereo not drawn): the “hERG current change (%, negative = inhibition) at 10uM” value is on record as 18.5%.
With `O=C(NC(=S)N1CCOCC1)c1cn(-c2ccccc2)nc1-c1ccccc1`, the “hERG current change (%, negative = inhibition) at 10uM” value came to 10.8%.
The same measure for `CCN1CCN(c2ccc(NC(=O)c3ccc(C#N)cc3F)cc2Cl)CC1`: -72.1%; for `O=C1C2C3C=CC(C3)C2C(=O)N1CN(Cc1ccccc1)CN1C(=O)C2C3C=CC(C3)C2C1=O` (stereo not drawn): -2.54%.
With `O=C(c1ccc(NS(=O)(=O)/C=C/c2ccccc2)cc1)N1CCCCC1`, the “hERG current change (%, negative = inhibition) at 10uM” value is -26.2%.
With `CCOC(=O)c1nc(Nc2ccccc2CC)c2ccccc2n1` the figure was -11.4%; with `c1cncc(C2Nc3ccccc3-c3nc4ccccc4n32)c1` (stereo not drawn), -5.58%.
With `Cc1c(C(=O)O)sc2nc(CSc3nnc(-c4ccc(F)cc4)n3C)[nH]c(=O)c12`, the “hERG current change (%, negative = inhibition) at 10uM” value was 10.9%.
With `CC(OC(=O)c1cccc(-n2cnnn2)c1)C(=O)NC1(C#N)CCCCC1` (stereo not drawn) the figure was -13.7%; with `COC(=O)c1ccc(OCC(=O)Nc2ccccc2C(=O)NC2CC2)cc1`, -13.8%.
Take `CCC1CCCCN1P(=O)(c1ccc(C)o1)C(C)(C)C` (stereo not drawn): the “hERG current change (%, negative = inhibition) at 10uM” value was -27.4%.
With `COc1cccc(C(=O)N[C@@H](C)C(=O)N2CCC3(CC2)NCCc2[nH]cnc23)c1` the figure was 21.3%; with `Nc1ncc(-c2ccccc2)c(-c2ccc(OCc3ccccc3)cc2O)n1`, -2.98%; with `Cc1ccc(S(=O)(=O)NC(=O)c2ccc(-c3ccc(-c4ccccc4)cc3)o2)c(C)c1`, -22.4%.
The same measure for `COc1ccc([N+](=O)[O-])cc1NC(=O)C(C)c1ccccc1` (stereo not drawn): -15.4%; for `COc1ccc(OCc2nnc3n2N=C(c2ccc(Br)cc2)CS3)cc1`: -1.31%.
With `CC(C)(C)C(=O)O/N=C(\N)c1ccc([N+](=O)[O-])s1` the figure was 20.7%; with `Cc1sc(NC(=O)c2ccco2)c(C(Nc2ccccn2)c2ccccc2)c1C` (stereo not drawn), 4.67%.
Turning to `COc1ccccc1C(=O)NCC(=O)Nc1ccc2c(c1)CCC2`, the “hERG current change (%, negative = inhibition) at 10uM” value is given as -3.66%.
For `O=C(Nc1ccccc1)N1CCSc2cc(Cl)ccc21`, the “hERG current change (%, negative = inhibition) at 10uM” value is recorded as -0.0515%.
`CCC(C)NC(=O)c1ccc(NC(=O)CC2SC(N3CCCCC3)=NC2=O)cc1` (stereo not drawn): the “hERG current change (%, negative = inhibition) at 10uM” value was 16%.
With `Cc1cc(C)cc(NC(=O)c2cccc(C(=O)Nc3cc(C)cc(C)c3)n2)c1`, the “hERG current change (%, negative = inhibition) at 10uM” value stood at 15.7%.
The same measure for `CCOc1ccc(C(=O)NCCO)cc1`: 4.7%; for `COc1ccccc1C(=O)Nc1cc2cc(Br)ccc2oc1=O`: 15.5%; for `O=C(NOC(=O)c1ccccc1Cl)c1cccs1`: 2.83%.
With `Oc1c(C=Nc2ccccc2)sc(=S)n1Cc1ccccc1` the figure was 4.64%; with `COc1ccccc1/C=C/C=N/n1c(-c2ccc(F)cc2)n[nH]c1=S`, 6.25%.
Regarding `COc1ccc(NC(=O)Cn2nnc(C(=O)NCc3cccs3)c2N)cc1Cl`, the “hERG current change (%, negative = inhibition) at 10uM” value is listed as -5.23%.
Take `O=C(O)c1cc(-c2ccc(N3CCOCC3)cc2)nn1-c1ccc(F)cc1`: the “hERG current change (%, negative = inhibition) at 10uM” value came out at 14.6%.
With `CC(NC(=O)c1ccc(Cl)cc1Cl)C(c1ccccc1)N1CCOCC1` (stereo not drawn) the figure was 18.9%; with `O=S1(=O)C=C(N2CCOCC2)c2ccccc21`, 15.5%; with `Cn1nc(-c2ccc(Cl)cc2)cc1NC(=O)CC(C)(C)CC(=O)O`, 17.9%.
The same measure for `COc1ccc(N(CC(=O)Nc2nccs2)S(=O)(=O)c2c(C)[nH]c(=O)[nH]c2=O)cc1`: 10.9%; for `O=C(NC1CC2CCCC(C1)N2C(=O)Nc1cccc(F)c1)C1CC1` (stereo not drawn): 0.0121%.
In the case of `COc1ccc(CNC(=O)Cc2ccc(-c3ccccc3)cc2)cc1OC`, the “hERG current change (%, negative = inhibition) at 10uM” value is on record as 8.17%.
In the case of `Clc1ccc(-c2nc3ncccn3c2Nc2ccc3c(c2)OCO3)cc1`, the “hERG current change (%, negative = inhibition) at 10uM” value is recorded as 20.7%.
With `Cc1ccc(Cn2nc(C)c(C=O)c2Cl)cc1` the figure was 5.73%; with `Cc1cc(C)c2c(ccc3cccc[n+]32)c1.[O-][Cl+3]([O-])([O-])[O-]`, -16.2%.
The same measure for `CCOc1ccc(NC(=O)COc2ccc(OC)cc2)cc1`: 12.8%; for `CCN1CCN(CCC(=O)Nc2cccc(C)c2)CC1.Cl`: 0.741%; for `COC(=O)c1ccc(C(=O)OC)c(NC(=O)CSCc2ccc(Cl)cc2)c1`: -2.64%.
The same measure for `CCc1cc2c(=O)n(CCC(C)C)c(=S)[nH]c2s1`: 10.8%.
For `Cc1ccc(C2(C)NC(=O)N(CC(=O)NCCC3=CCCCC3)C2=O)cc1` (stereo not drawn), the “hERG current change (%, negative = inhibition) at 10uM” value was determined as 10.6%.
With `CCN(CC)c1ccc(NC(=O)COC(=O)CCC(=O)c2ccc(F)cc2)cc1` the figure was 0.0727%; with `Cn1cc(C(=O)NCc2ccccc2)c2ccccc21`, 4.35%.
With `CC(NC(=O)Nn1cnnc1)(C(F)(F)F)C(F)(F)F` the figure was 10.3%.
With `CCC(C)(C)C1CCC(NC(=O)N2CCN(c3ccccc3O)CC2)CC1` (stereo not drawn) the figure was -6.84%; with `CCCCOc1ccccc1N1CCN(CCCN2C(=O)C3CCCN3C2=O)CC1.Cl` (stereo not drawn), -56.7%.
Consider `O=c1c2ccccc2nc2n1C(CSc1ccc(Cl)cc1)CN2` (stereo not drawn), for which the “hERG current change (%, negative = inhibition) at 10uM” value is on record as -8.43%.
Regarding `Cn1ncc(Br)c1C(=O)N1CCCCCC1`, the “hERG current change (%, negative = inhibition) at 10uM” value turned out to be 18%.
With `CNc1oc(-c2cccs2)nc1S(=O)(=O)c1ccccc1`, the “hERG current change (%, negative = inhibition) at 10uM” value is reported as -18.7%.
The same measure for `COc1cccc(C(=O)Nc2ccc(NC(=O)C3C4C=CC(C4)C3C(=O)O)cc2)c1` (stereo not drawn): 13.4%.
With `CCOc1cc(C=C2C(=O)NC(=O)NC2=O)ccc1OS(=O)(=O)c1ccccc1` the figure was -18%; with `Cc1ccc(OCCC(=O)OCC(=O)Nc2cc(C)cc(C)c2)cc1`, 24.5%.
The same measure for `O=C(c1ccccn1)N1CCCC(N2CCN(Cc3ccc4c(c3)OCO4)CC2)C1` (stereo not drawn): 4.4%.
`COC(=O)CNC(=O)C12CC3CC(C1)CC(c1ccc(C)cc1)(C3)C2`: the “hERG current change (%, negative = inhibition) at 10uM” value was found to be 12.9%.
As for `Cc1cccc(Nc2ccccc2C(=O)O)c1C`, the “hERG current change (%, negative = inhibition) at 10uM” value came out at 2.88%.
For `COc1ccccc1NS(=O)(=O)c1cc(NC(=O)Nc2cccc(C)c2)ccc1N1CCCCC1`, the “hERG current change (%, negative = inhibition) at 10uM” value amounted to 8%.
With `O=C1OCC(CO)(CO)N=C1NNc1ccc(Cl)c(Cl)c1` the figure was 8.16%; with `Cc1ccc(C(=O)Nc2ccccc2Sc2ccccc2)cc1`, 16.9%; with `Cl.N=c1n(CCO)c2ccccc2n1CCN1CCCCC1`, 6.77%.
The same measure for `COc1ccccc1-n1c(SCC(=O)N2CCOCC2)nc(O)cc1=O`: 18.3%.
For the molecule `Cc1occc1-c1nnc(SCC(=O)c2c(N)n(C3CC3)c(=O)[nH]c2=O)n1C`, the “hERG current change (%, negative = inhibition) at 10uM” value was -11.1%.
With `COc1ccc(C2C(C(=O)NCc3ccco3)CCC(=O)N2c2ccc(OC)cc2)cc1` (stereo not drawn) the figure was 9.48%; with `C/C(=N\N=c1/sc2ccccc2n1C)c1ccccn1`, -6.62%.
For the molecule `C/C(=N\Nc1ccc([N+](=O)[O-])cc1)c1ccc2c(c1)OCO2`, the “hERG current change (%, negative = inhibition) at 10uM” value is 2.82%.
`NS(=O)(=O)c1ccc(N/N=C/C=C/c2ccccc2[N+](=O)[O-])cc1`: the “hERG current change (%, negative = inhibition) at 10uM” value was determined as 10.1%.
For `COCCN1C(=O)Cc2c1nc(N)c1c(N)nc(N3CCN(c4ccc(F)cc4)CC3)c(C#N)c21`, the “hERG current change (%, negative = inhibition) at 10uM” value is on record as -11.3%.
On to `Fc1ccc(NC(=S)N2CCCC2)cc1`, for which the “hERG current change (%, negative = inhibition) at 10uM” value was -1.37%.
Take `O=c1cc(-c2ccc(O)cc2)oc2c(C3O[C@H](CO)[C@@H](O)[C@H](O)[C@H]3O)c(O)cc(O)c12` (stereo partly drawn): the “hERG current change (%, negative = inhibition) at 10uM” value is 17.8%.
As to `O=C(Oc1cccc(Nc2ncnc3ccccc23)c1)c1cccnc1`, the “hERG current change (%, negative = inhibition) at 10uM” value is -3.78%.
The same measure for `COc1ccc(NC(=O)C(C)N2c3cccc4cccc(c34)S2(=O)=O)cc1OC` (stereo not drawn): -3.78%.
On to `O=C(Cn1c(=O)n(CC2CCCO2)c(=O)c2ccccc21)c1ccc(Cl)c(Cl)c1` (stereo not drawn), for which the “hERG current change (%, negative = inhibition) at 10uM” value is -16.4%.
Consider `CC(C)N1CC(C(=O)Nc2ccc(Cl)c(Cl)c2)CC1=O` (stereo not drawn), for which the “hERG current change (%, negative = inhibition) at 10uM” value amounted to 9.54%.
With `Cc1ccc(-n2ccnc2SCC(=O)N(CC(C)C)C2CCS(=O)(=O)C2)c(C)c1` (stereo not drawn), the “hERG current change (%, negative = inhibition) at 10uM” value is -9.82%.
With `CCCCNC(=O)C1c2cc(OC)c(OC)cc2C(=O)N(C)C1c1ccc(OC)cc1` (stereo not drawn) the figure was 3.21%; with `Cc1cccc(C)c1NC(=O)C1c2cccc[n+]2CC(=O)N1Cc1cccs1.[I-]` (stereo not drawn), 4.89%.
For `CCCC(/C=C/c1ccc(OC(C)=O)cc1)=C1/c2ccccc2C(=O)N1c1ccccc1`, the “hERG current change (%, negative = inhibition) at 10uM” value came to 14.6%.
The same measure for `NC(=O)c1ccccc1NC(=O)CSc1nc2ccccc2c(=O)[nH]1`: 20.9%; for `CC(C(=O)NC1CCCC1)N(C(=O)c1snc(C(N)=O)c1N)c1ccc2c(c1)OCCO2` (stereo not drawn): -19.3%; for `COc1ccccc1C(=O)Nc1ccc(N2CCN(S(C)(=O)=O)CC2)cc1`: -7.79%.
The same measure for `CC1=CC2=NC(=O)/C(=C\c3cn(C)c4ccccc34)C(=N)N2O1`: -0.356%.
The same measure for `COC(=O)c1cc(Cl)c(NC(=O)c2ccco2)cc1OC`: 12%; for `Cc1nn(-c2ccccc2)c(N)c1C(c1ccccc1)c1c(C)nn(-c2ccccc2)c1N`: -11%; for `COc1ccc(CCNC(=O)c2ccc(Br)cc2)cc1`: 11.5%.
Regarding `c1ccc2[nH]c(CSc3nc4ccccc4s3)nc2c1`, the “hERG current change (%, negative = inhibition) at 10uM” value is -23.1%.
